Source: the supplement of paper PMC12632987
In all, about 4,500 sequences were measured (“median log2 fold change of GCK-ALFA target abundance (FLAG IP / Myc IP barcode read proportion)”: median about 0.078, lowest 2% from about -0.6 on). The list shows a part of the results.

B1: GBRAP_139_3736 (protein)
chain: DAAEAAVAEAVELARRSVEEGLAYVEELAAHLASLDEETAERALDAIAEVMKEESFETVDAFFDALEEALLTRHKNEDLAEMVEAARNRALAEVAVREEE
B2: GBRAP_160_4109 (protein)
chain: SEKVKKLIADFEAVAAEVLADAANLTPQQIANEFEVESGSVIMDAIEELGISHEVAEKLLEVVDKARAALLANTDRDLATITAILDAALAEIRKILEENE
B3: GBRAP_128_3404 (protein)
chain: SEEEKVEKAKELIEKIVEADVETARELAEELMELFGELSLEAQEKVKEYIEEALPKLTAEKLDVLADVLREKRPEFSPEAQEIINDWEVAALNAAEEKEE
B4: GBRAP_160_4616 (protein)
chain: SEKVEELIKEVEEEFEEAKEMVEGQTAEQRATIVDVTFGKIIIEADELEVVSDESLEKIDEIRDEVVDTILANPDLTDEEVKALIDEAKKKVIEIIEKDK
B5: GBRAP_128_3559 (protein)
chain: SVEERVEKAKELLEKIKNSDVEEARKYAEELAKLLEEADEESLEAIVETILERLPELSVEHLDVLADVFRERIPEADPRTAEALAEIQVEALNEAEEKEE
B6: GBRAP_26_5425 (protein)
chain: LDEAVERAIERISAAAAELLDPETAAAVRAVVTDELLEAEEEIEEEDLSEEEVEELLEEVLEEIEEDLEELGVPAEKRARLVAVAEEELEEVLEEWKEER
B7: GBRAP_184_5223 (protein)
chain: TLLREAVEATTAEELIAKADAVVDAAAAAGVDLVLTVIAKGLSVEEVRKVAAHLAELRDAGRIKDAILVVEDPKSEEEVDELVAIADENGIKLVIALSEE
B8: GBRAP_166_4969 (protein)
chain: MEEEIVKELKEFIDEKAEKMKTADHEEKLELLAEVAEKLGEAIKKGLSNENLKELVEYLIKKALEVGISPSEVEGALSIIADLDEEQIDILEEARKKVLA
B9: GBRAP_11_2759 (protein)
chain: KKEKLKEIAELAEKLAELLTKLLEEGVDNEELLAEAKKALEKLKELVEKYGDEDLKKLVKILEEEFKKALEDPENKEEHVQHARDTAAVISGQALLDYEE
B10: GBRAP_137_3638 (protein)
chain: PNVTITTETVDDLVKITIKFDDPEKAEEAKELIEDIAHEEGALALSIEINEDGTLDAEIWVPKEKAEKLINKLVEAFKTKFNATVTIINKDTGEVTTIKA
B11: GBRAP_184_5117 (protein)
chain: KVLEHTIKAKDVAEAKEKLAAVREEAAASKATVVVVVEVENPTVELAKAIIAEAAAIREAGAKDVLLEIVGDNITDEVIDAIVAAADAAGLDNVVIARTE
B12: GBRAP_184_5201 (protein)
chain: AVKEFTIKFENLEELKEKLKELLEELKGFKGDIYIIVEAEEITKEMAEEIVKFLKEVKEKGYATSVTVDIEGKISEEVEDFLLKKSKELGVKVVIALDEE
B13: GBRAP_45_5812 (protein)
chain: SEEAEKARQKAIEALNKAIKLVEEDERIPEETKEKILEHLKKALELLQQPDLNEELVDEALKHVDEALKLLASEPNVSGELVDAVEDAAEYLAELGDLLE
B14: GBRAP_160_4299 (protein)
chain: MEKLEELKEEIEEIAEEAIEMIEGETPEQRKTIVRVAMGDIILLAEENPEVSDEAEEEIAKVADETEETIDANPDLTEEEVKELIEEAREKVLEIIEKLE
B15: GBRAP_26_5443 (protein)
chain: IEELIDEVEEKLLEAIDELLPPELAGPAKASLLTILEELEEKLKENKNDFEKQEKIAEEALEEFEEDLEELGVPEEEREKLVELLEEELKKLLKKIKEEK
B16: GBRAP_184_5032 (protein)
chain: MVIEEEIEAENLEELKEKLEELEKKVEGKKADLIVSLNIKNPTEEMIKTALAMLGKMKKEGKVTSVTVGFKNLLSEELIDVALKAADENGVKVVLPISEE
B17: GBRAP_160_4815 (protein)
chain: MEKVKKLLEEARKDLLDTAEASKDLPIEDRAALLRAEGYTAILELKEELNLSDETEDKLVEIVDDLVATLLANPDLTPEEVLALVEEAHERMEEIVLKEA
B18: GBRAP_184_5281 (protein)
chain: KVEEVEIDAETAEEAIEELEKAAKEAKAKGAKLKLNILLRNASLEGVKELFKLLKELKEQGIIESATVGLEREVSEEELDELLKAADEAGVKLVVAIPDE
B19: GBRAP_9_7176 (protein)
chain: LKEAADAAIKGAKEAKEFILEVVPEEEKEKIKEAFDEFIKKLEEMKADPNVTKEEFEKKLEEGIEKIIKLAKENLTPEIAAIVETELLTIEDEVDELLDE

Biological target: GABARAP, O95166
Test: median log2 fold change of GCK-ALFA target abundance (FLAG IP / Myc IP barcode read proportion) (log2 ratio); each designed protein is fused to an ALFA-tag nanobody in HEK293 cells to bring the named protein to FLAG-tagged glucokinase (GCK); Myc marks an untargeted standard; higher = target protein stabilised (more abundant)
Conditions: target protein: 3xFLAG-MCP-GCK-ALFA reporter; HEK293 landing pad (RPLP)
In short: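 HEK293 landing-pad cells received a recombined binder library fused to the ALFA nanobody and were induced with 2 μg mL^−1 doxycycline, then transfected with a plasmid encoding a FLAG-tagged target and a Myc-tagged standard. Lysates were collected after 48 h for anti-FLAG and anti-Myc immunoprecipitation, and the circular RNA barcodes were reverse transcribed, amplified and sequenced. Target abundance for each binder is the median log2 ratio of FLAG to Myc barcode read proportions. Barcodes had to reach a proportion of at least 10^−7 in both replicates, each binder needed at least 3 barcodes per replicate, a pseudocount of 10^−6 was applied, and the two replicates were pooled.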

Sequence of GABARAP, O95166 (O95166 whole entry, the tested form may be a part): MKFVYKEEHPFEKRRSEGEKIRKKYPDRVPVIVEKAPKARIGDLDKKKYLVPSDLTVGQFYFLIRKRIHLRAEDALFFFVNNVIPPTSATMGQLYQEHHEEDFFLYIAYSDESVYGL

Row | Binder | median log2 fold change
1 | B1 | 0.209
2 | B2 | 0.136
3 | B3 | 0.27
4 | B4 | 0.254
5 | B5 | 0.095
6 | B6 | -0.608
7 | B7 | -0.0259
8 | B8 | 0.281
9 | B9 | 0.312
10 | B10 | 0.192
11 | B11 | 0.329
12 | B12 | 0.0646
13 | B13 | 0.275
14 | B14 | -0.297
15 | B15 | 0.00424
16 | B16 | 0.231
17 | B17 | 0.00395
18 | B18 | -0.00895
19 | B19 | 0.0747
